# Source: article PMC4336329 (PLoS ONE, 2015)
# The campaign covered roughly 310,000 compounds. About 2,200 (0.71%) showed an effect of 50% or more. The effect is printed as a negative number. The list shows a part of the results.
# Molecular target: human ether-à-go-go-related gene (hERG) potassium channel (human, UniProt Q12809)
# Test: primary screen, population patch clamp on CHO cells stably expressing hERG
# human ether-à-go-go-related gene (hERG) potassium channel, sequence (Q12809 whole entry, looked up): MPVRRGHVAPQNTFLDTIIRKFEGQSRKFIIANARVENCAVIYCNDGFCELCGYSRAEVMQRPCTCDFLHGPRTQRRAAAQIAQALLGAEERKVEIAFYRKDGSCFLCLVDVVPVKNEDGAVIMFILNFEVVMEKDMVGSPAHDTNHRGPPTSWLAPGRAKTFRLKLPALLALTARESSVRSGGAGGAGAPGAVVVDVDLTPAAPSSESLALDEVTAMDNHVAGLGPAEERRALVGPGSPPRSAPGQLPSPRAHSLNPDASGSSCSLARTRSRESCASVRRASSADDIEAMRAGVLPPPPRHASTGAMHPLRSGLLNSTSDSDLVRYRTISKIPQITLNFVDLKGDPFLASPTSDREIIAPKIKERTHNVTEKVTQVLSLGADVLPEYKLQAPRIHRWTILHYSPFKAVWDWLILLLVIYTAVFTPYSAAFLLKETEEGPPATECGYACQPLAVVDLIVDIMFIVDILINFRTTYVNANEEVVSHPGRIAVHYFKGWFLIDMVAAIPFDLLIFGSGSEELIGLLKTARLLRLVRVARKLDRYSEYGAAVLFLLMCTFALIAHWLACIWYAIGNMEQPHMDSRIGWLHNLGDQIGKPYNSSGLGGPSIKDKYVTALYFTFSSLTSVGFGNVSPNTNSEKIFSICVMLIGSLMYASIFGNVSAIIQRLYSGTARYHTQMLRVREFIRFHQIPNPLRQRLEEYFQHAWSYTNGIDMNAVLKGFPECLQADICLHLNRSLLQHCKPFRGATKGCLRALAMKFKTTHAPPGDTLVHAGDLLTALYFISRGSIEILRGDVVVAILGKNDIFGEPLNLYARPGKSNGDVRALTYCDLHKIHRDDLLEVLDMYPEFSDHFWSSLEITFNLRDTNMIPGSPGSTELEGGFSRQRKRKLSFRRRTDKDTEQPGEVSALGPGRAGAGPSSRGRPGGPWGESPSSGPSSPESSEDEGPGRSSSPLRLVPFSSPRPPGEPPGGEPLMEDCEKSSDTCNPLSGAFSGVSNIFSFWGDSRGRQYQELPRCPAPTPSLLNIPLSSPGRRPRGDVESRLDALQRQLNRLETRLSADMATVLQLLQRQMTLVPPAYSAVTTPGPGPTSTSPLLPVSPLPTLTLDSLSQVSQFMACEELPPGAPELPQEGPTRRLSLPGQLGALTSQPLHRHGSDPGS
row,SMILES,"hERG current change (%, negative = inhibition) at 1uM [%]"
1,O=C(Nc1ccc(NC(=O)c2ccccn2)cc1)C(=O)Nc1ccc2c(c1)OCCO2,17.3
2,c1ccc(Cn2nnnc2CN2CCOCC2)cc1,2.76
3,Cc1cc(C[n+]2cc(Br)ccc2N)c2ncccc2c1.[Br-],-34.2
4,CC(=O)c1ccc(N2CCN(S(=O)(=O)c3ccc4ccccc4c3)CC2)cc1,-2.98
5,COc1ccccc1N1CCN(C(=O)c2noc(C(C)C)c2[N+](=O)[O-])CC1,23.5
6,COc1ccc(C(=O)Nc2ccccc2C(=O)NC(Cc2ccc(O)cc2)C(=O)NNC(=O)c2ccc(C)cc2)cc1 (stereo not drawn),1.6
7,COc1ccc(-c2ccc3oc(-c4ccc(OC)cc4)c(C#CCCO)c3c2)cc1,1.64
8,CC(=O)N[C@@H](Cc1c[nH]c2ccccc12)C(=O)OCc1ccc(C#N)cc1,-1.17
9,O=C1ON=C(c2cccc([N+](=O)[O-])c2)/C1=C/c1ccc(O)cc1,15.6
10,O=C1CSC(c2ccccc2F)N1c1ccccc1 (stereo not drawn),8.62
11,COc1ccc(NS(=O)(=O)c2ccc(NS(=O)(=O)c3ccc(SC)cc3)cc2)c(OC)c1,6.71
12,CCCc1cc(=O)[nH]c(/N=C(/NC(=O)C(C)N2C(=O)c3ccccc3C2=O)Nc2ccccc2)n1 (stereo not drawn),15
13,COc1ccccc1C1/C(=C(/O)c2ccc(OC(C)C)cc2)C(=O)C(=O)N1c1cc(C)on1 (stereo not drawn),8.98
14,Cn1c(COc2cccc3cccnc23)nnc1SCC(=O)O,12.1
15,O=C(Nc1nnc(SCc2ccccc2F)s1)C1=COCCO1,-2.96
16,COc1cc(NS(=O)(=O)c2c(C)oc3c(F)c(F)c(F)c(F)c23)cc(OC)c1OC,2.11
17,COc1ccc(/C=C2/C(=O)N=C(N)N2C)cc1OC,9.58
18,COc1ccc(C/C(C)=N/NC(=S)Nc2ccccc2)cc1,7.72
19,COc1cc2c(cc1OC)[C@H](Cc1ccc(O)cc1)NCC2,10.8
20,CN1CCCN(C(=O)COc2ccccc2Br)CC1,3.64
21,CN(C)S(=O)(=O)c1cccc(NC(=O)c2ccc(Sc3nncn3C)c([N+](=O)[O-])c2)c1,12.7

row,SMILES,"hERG current change (%, negative = inhibition) at 1uM [%]"
1,Nn1c(COc2cccc(Cl)c2)nc2ccccc2c1=O,-1.31
2,COC(=O)Nc1ccc(S(=O)(=O)Nc2ccccc2F)cc1,11.8
3,O=C(Cc1ccc(S(=O)(=O)N2CCOCC2)s1)Nc1cc(C(F)(F)F)ccc1N1CCCC1,15.2
4,Cc1ccc(-c2cc(C(=O)Nc3ccc4c(c3)OCCO4)c3ccccc3n2)cc1,10.4
5,CC(C)(C)C(=O)NC(=S)Nc1ccc(Cl)c(C(=O)O)c1,10.2
6,O=C(CN1CCN(S(=O)(=O)c2ccc(Cl)cc2)CC1)Nc1ccc2c(c1)OCCO2,6.44
7,CCOC(=S)N/C(=N\S(C)(=O)=O)c1ccccc1,0.681
8,Cc1ccn2c(=O)c(C(=O)NCCC3=CCCCC3)c(O)nc2c1,29.1
9,CCC(C)N(C(=O)CSc1nc(-c2ccccc2)cs1)C1CCS(=O)(=O)C1 (stereo not drawn),8.06
10,O=C(O)/C=C/c1ccccc1Oc1ccccc1,14.3
11,CC(C)Sc1nnc([C@@H]2CCCN2C(=O)OC(C)(C)C)o1,12.4
12,CN(C)S(=O)(=O)c1cccc(NC(=O)COC(=O)CNC(=O)c2cccc([N+](=O)[O-])c2)c1,-4.61
13,CCc1c(C)sc(NC(=O)c2cc(C)on2)c1C#N,5.33
14,C[C@@H](C(=O)NCC1CCCO1)N1C(=O)N2CCc3c([nH]c4ccccc34)[C@@]2(C)C1=O (stereo partly drawn),4.53
15,O=C(c1ccc(Cn2c(=O)[nH]c3ccsc3c2=O)cc1)N1CCN(c2ccccc2)CC1,9.59
16,COc1ccc(C(=O)NCCc2ccccc2F)cc1OC1CCN(C(C)=O)CC1,12.5
17,COc1cc(/C=N/NC(=O)c2c(-c3ccccc3)noc2C)ccc1O,7.58
18,CN1CCN(CCCNC(=O)CN2C(=O)COc3ccccc32)CC1,15.7
19,Cc1nnc(SCC(=O)NC2CC2)s1,6.18
20,O=C(CNC(=O)c1ccco1)Nc1ccc(F)cc1,-2.29
21,CC1CCN(C(=O)CCN2C(=O)/C(=C/c3cccs3)SC2=S)CC1,7.54
